# Measured values: the supplement of paper PMC11417369
# Some of the results follow.
# Tested on: PfAP2-HC AP2 domain (GST-tagged)
# Assay: gcPBM binding intensity (ln(normalized median fluorescence intensity)); higher = stronger DNA binding
# Method in brief: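 GST-tagged P. falciparum DNA-binding domains produced in E. coli were incubated for 1 h on an Agilent 4 × 180k array of primer-extended double-stranded 36-bp intergenic genomic probes with negative controls. Binding intensity is the highest Masliner-normalised natural-log median intensity across replicate spots of either probe orientation, with bound protein detected by Alexa488 anti-GST antibody at 488 nm.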
row,Sequence,gcPBM binding intensity (ln)
1,CGTATAACATATGACACACACACATACATACACAAA [CACACA_site1803],10.4
2,GATTTATATAATTCAAGTACTAAAAATATTTTTAAT [XGTACX_site5285],9.43
3,TAAGACTATTAAAAAATTGAGTACATGAACTGTTCA [GTGCAC_negctrl_site670],9.41
4,AAATATAAAAAATATACACACATATATAATATATAT [CACACA_site2963],9.9
5,TGTATATTTGATTCATGTACATATTTTATTTTAACT [XGTACX_site5169],9.72
6,CAGATTTATTCAAACGCATGCTGTTTTAAAATAAAA [TGCATGCA_site874],9.29
7,CCTATATAATTATAATGTACTTGTAAAAAATATAAC [XGTACX_site2864],9.45
8,AATGTATTTAAACTGACACACAAAAAAAATAAAATA [CACACA_site2138],9.93
9,ATATTGTAAGTAAACACACACACATCTATAGGTATA [CACACA_site6462],10.6
10,ATCCGCTGCCTTTTGGTGCAGAACATAATCATGTAA,9.38
11,TTTAAAATATTAAAATGTACATATATATATATATAT [XGTACX_site6784],9.59
12,TATATATATATATATACACACATACATATATATATT [CACACA_site8185],9.79
13,ACATAAATATATTTTTCACACATCCTTAGTTATGAA [CACACA_site5179],9.63
14,AAATAACAAAAGAAGGTGCTCATAAAAATTCATACA [GTGCAC_site9864],9.65
15,CATTTACCCTTATTAACACACAAAATAAAATACGCT [CACACA_site7249],9.81
16,AACAATAGTAAAAATACACACATTAAACTTCATTTC [CACACA_site2126],9.97
17,ATACAATGATATATACATATATATATATATATATAT [TGCATGCA_negctrl_site359],9.89
18,AAATTATAAAAAAAAAAAAAAAAAAAAAAAAAAAAA [XGTACX_negctrl_site501],8.72
19,AAAAAAAAAAAAAAAAAAAAAAAAAAAAAAAAAAAA [CACACA_negctrl_site204],9.14
20,AAAAAAATTACGCAAGTGCATATAATTTAACAAAAA,9.64
21,ATATATATATATCACGCACACACGAATTTTAAATAT [CACACA_site3131],10.1
22,AACATTTATATAAAAGAACACACATATAAAATATTA [CACACA_site9199],9.82
23,ATCGCGAAGTAGCATTCACACACAGCAAAATATATA [CACACA_site9162],10

row,Sequence,gcPBM binding intensity (ln)
1,AATGGTAATCCACATACACACACACCGACACATATA [CACACA_site8876],11.1
2,ATATATACAACTAAAGAACACACATCATTGTTCATT [CACACA_site9224],9.94
3,AAACAATTTTTTAAAAGTACTTGAAAATTGTGAAAT [XGTACX_site2461],9.63
4,GAAAGGACAAGAATAGTGCACATGCAATGTTATTTT [GTGCAC_site9985],10
5,ACAAAATTTTTAAGAACACACAAAAATGTACTATCG [CACACA_site2550],9.66
6,AATCATGCTCCGGAAAGTACATAAATAAATAAATAA [XGTACX_site1690],9.56
7,CACATACACATACAAACACACATTATGTATATATAT [CACACA_site1599],10.2
8,AAAAAAAAAAAACATACACACATACATACATATATA [CACACA_site8222],10.6
9,CATATATAAATATGTACACACATATGTATGATCTCA [CACACA_site3868],9.93
10,TTATTTATAAGTAATATTATATATTCTTTTAATACA [CACACA_negctrl_site471],9.44
11,TAAAATTTTTGTTTTTGTACGAAACATCAATTTTAC [XGTACX_site4963],9.65
12,TTCTATATATTTGGAAGTACATTATATTTATTTTTT [XGTACX_site3172],9.65
13,AATGGTATAAACAATACACACATAATATAAATATTG [CACACA_site6878],9.88
14,TTATATATAAATGTGTGTACTTATAAAATAATCATT [XGTACX_site5370],9.68
15,AGATCTATTATTTTTTGTACTTATATATAAACTTAA [XGTACX_site1737],9.64
16,ATAGGCAAAAAGTGTACACATTCATTTATATAAATA [CACACA_site4480],9.8
17,AGTGAATATCTAAAATGTACATAAATAAATAAATAA [XGTACX_site8293],9.73
18,CGTTATATCAAAGGAGTGCATTATGAATACGTTTTA [GTGCAC_site9837],9.57
19,TTAAAATTTTTCAAAAGTACATAAATAATATATATT [XGTACX_site4694],9.32
20,AATATATTATATATATGTACATAATGTGTAATACCT [XGTACX_site2845],9.77
21,TTTATTTGTTCATGCGTGCACTTGATAACAATGTAC [GTGCAC_site9561],9.63
22,GGAAAAAAATATAAAAGTACTTTTTATTTATTTTAT [XGTACX_site7418],9.53
23,TTTTTTTTTGTTAAAGTGCATATATTAAATTTTCCT [GTGCAC_site9677],9.47

row,Sequence,gcPBM binding intensity (ln)
1,AAAAAAAATTCATATTGTACTTTTAAATTAAAGAAA [XGTACX_site4521],9.28
2,AAATTTTTTGTTCAATGTACTTTTTTATTATATTTT [XGTACX_site5298],9.71
3,ATTTTTTAAATTTAAACACACATTTTGTATATGTTT [CACACA_site1654],9.94
4,GATATATAATATAATACACACATTTTATGAATGTAA [CACACA_site24],9.81
5,TCTACTATTATATATTGTACAAATGATACTTATATT [XGTACX_site1819],9.74
6,AAAAAAAAAAAACATACACACATACATACAGATATA [CACACA_site4681],10.1
7,TTTCACTACACAAATACACACAAAAATATATGTGCA [CACACA_site2632],9.8
8,TTCTATTTTATATGTGCACACATATACACCCACAAA [CACACA_site1130],10.1
9,TTCTTTTTGAAACACACACACACAAGAAAATATATA [CACACA_site3110],10.8
10,AGATACAAGCACTATAGTACACATACTAAAAATATA [XGTACX_site5849],9.73
11,TATAATTAAAATTTGTGTACGTATGACAAAACATTT [XGTACX_site7072],9.56
12,TTTCCTTACCCTTTCCTGGTGTAGAAATTATACTCT [TGCATGCA_negctrl_site116],9.61
13,AAAAAAATAACAAAAGTGCATTTTTATGAGTTATCT,9.65
14,ATATATAATTAATAAAGTACATTAATTATTTCTTTT [XGTACX_site3034],9.44
15,TATGTTATATTGGACACACACAATAAACATTATGTA [CACACA_site1657],9.94
16,ATATATATATATAAGCGTACGCGTAGTTAAATTAAT [XGTACX_site7693],9.92
17,ACAAAAAAAATAAGCACACATATATATATATATATA [CACACA_site816],9.91
18,AAATGAAAAATAAGGAAAAAAAAAAAAAAAAAAAAA [CACACA_negctrl_site1715],8.63
19,TAAAATATTTCAAAGGTGCAATGATAATTTAAGACG [GTGCAC_site9609],9.61
20,ATATTGACAGGAAAAATTTTCTTTGAATCTTTAAAA [CACACA_negctrl_site1191],9.29
21,ACGATAACATTTTTACGTACATATATTTTCACGGAG [XGTACX_site8764],9.59
22,TATTCAATACTTAATGCACACAATAAAAAAAATATG [CACACA_site2467],9.72
23,TACATGATAAGATGTAGTACATAAAAGAATAAATTA [XGTACX_site787],9.8

row,Sequence,gcPBM binding intensity (ln)
1,TTTTCAAAAATATATACACACATGCATATTACGGTG [CACACA_site775],9.77
2,CCACTAATTATGTGCACACAAATTAAAGGTCTACAA [CACACA_site4259],10
3,GAAATAATTTTTATTTGTACACACATACATATATAT [XGTACX_site1862],10.3
4,AAATTTTATAAAGGAACACACATTTTTTTTTTTTCT [CACACA_site2368],9.65
5,TTATTCATTTCGAAAAGTACAAATTCTGTTTATTAT [XGTACX_site6892],9.6
6,ATAATATTTATAAATTGTACTAATGTTCAATAATTA [XGTACX_site7284],9.43
7,TTTTGTCGGAAATCGGATAAGAAGAAAAAAAATAAT [GTGCAC_negctrl_site594],9.49
8,AAAAAAAAAAAATACGTGCACTATGATATATTATAT,9.81
9,TTCACTCCATATTATACACACACACTAATGAAAAAA [CACACA_site8991],10.3
10,AAAAAAAAAAAAAGTACACACATACATATAAATATA [CACACA_site8533],9.9
11,CATTTTTTGCTTTCAACACACATACAATATATATAA [CACACA_site6127],9.75
12,AAGGATCACGCACAAACACACATATTTATATTTATA [CACACA_site6405],9.95
13,CTTTATTTTTTATACACACACAATATGTATATATAT [CACACA_site3550],9.92
14,TTTTTATTTTTTGAAACACACACAAAAAAAATGATA [CACACA_site8564],9.72
15,AAACAAATATATATATGTACTTATAAAAAAAAAAAT [XGTACX_site2211],9.77
16,TAAGGATATATATATTCACACACACCGGGAAATATA [CACACA_site8020],10.8
17,TTTTTGTATTCTTCTTCTTCCAGACTACATTATGTC [XGTACX_negctrl_site235],9.82
18,ATATATTTAAAATTGACACACATTTAATGACATTTT [CACACA_site3112],9.69
19,TATATATGGAAAAGAGTCAAAAAGAAAAAAGAAAAA [CACACA_negctrl_site1374],9.44
20,TATGAAATATTTATACACAGAACTTCATAATTTTCA [TGCATGCA_negctrl_site509],9.47
